B1: POU5F1B, Q06416 (protein)
chain: MAGHLASDFAFSPPPGGGGDGPWGAEPGWVDPLTWLSFQGPPGGPGIGPGVGPGSEVWGIPPCPPPYELCGGMAYCGPQVGVGLVPQGGLETSQPESEAGVGVESNSNGASPEPCTVPPGAVKLEKEKLEQNPEKSQDIKALQKELEQFAKLLKQKRITLGYTQADVGLILGVLFGKVFSQKTICRFEALQLSFKNMCKLRPLLQKWVEEADNNENLQEICKAETLMQARKRKRTSIENRVRGNLENLFLQCPKPTLQISHIAQQLGLEKDVVRVWFCNRRQKGKRSSSDYAQREDFEAAGSPFSGGPVSFPPAPGPHFGTPGYGSPHFTALYSSVPFPEGEVFPPVSVITLGSPMHSN
B2: NOBOX, O60393 (protein)
chain: MALLLTLTSPDLEGTWDTRDKDGFKAQEGPPLAVPEFPVCGLYRIYGVCGSFSSFFIIRCSLCALETLKSPQHDPLEIPEQSLKLIPLVSGKRELTRGQKAGEKPLAAGPGEEELLRGSAPHAQDTQSEELPPSCTISGEKKPPAVSGEATGADAGRLCPPPRSRAPHKDRTLARSRPQTQGEDCSLPVGEVKIGKRSYSPAPGKQKKPNAMGLAPTSSPGAPNSARATHNPVPCGSGRGPCHLANLLSTLAQSNQNRDHKQGPPEVTCQIRKKTRTLYRSDQLEELEKIFQEDHYPDSDKRREIAQTVGVTPQRIMVKGAGSLVAGWSGGGPTIETLELQSERSAVAWVWFQNRRAKWRKMEKLNGKESKDNPAAPGPASSQCSSAAEILPAVPMEPKPDPFPQESPLDTFPEPPMLLTSDQTLAPTQPSEGAQRVVTPPLFSPPPVRRADLPFPLGPVHTPQLMPLLMDVAGSDSSHKDGPCGSWGTSITLPPPCSYLEELEPQDYQQSNQPGPFQFSQAPQPPLFQSPQPKLPYLPTFPFSMPSSLTLPPPEDSLFMFPCGPSGGTSQGYCPGASSGQILMQPPAGNIGTASWSDPCLPELPFPGPFCPQALGHPPGGDGYFPDLFPTPCPQALGRQPSSALSWMPEGARPGTGPLLSKAKEEPPAASLDQPSALEEARGDDKNSHVP
B3: MSGN1, A6NI15 (protein)
chain: MDNLRETFLSLEDGLGSSDSPGLLSSWDWKDRAGPFELNQASPSQSLSPAPSLESYSSSPCPAVAGLPCEHGGASSGGSEGCSVGGASGLVEVDYNMLAFQPTHLQGGGGPKAQKGTKVRMSVQRRRKASEREKLRMRTLADALHTLRNYLPPVYSQRGQPLTKIQTLKYTIKYIGELTDLLNRGREPRAQSA
B4: THRB, P10828 (protein)
chain: MTPNSMTENGLTAWDKPKHCPDREHDWKLVGMSEACLHRKSHSERRSTLKNEQSSPHLIQTTWTSSIFHLDHDDVNDQSVSSAQTFQTEEKKCKGYIPSYLDKDELCVVCGDKATGYHYRCITCEGCKGFFRRTIQKNLHPSYSCKYEGKCVIDKVTRNQCQECRFKKCIYVGMATDLVLDDSKRLAKRKLIEENREKRRREELQKSIGHKPEPTDEEWELIKTVTEAHVATNAQGSHWKQKRKFLPEDIGQAPIVNAPEGGKVDLEAFSHFTKIITPAITRVVDFAKKLPMFCELPCEDQIILLKGCCMEIMSLRAAVRYDPESETLTLNGEMAVTRGQLKNGGLGVVSDAIFDLGMSLSSFNLDDTEVALLQAVLLMSSDRPGLACVERIEKYQDSFLLAFEHYINYRKHHVTHFWPKLLMKVTDLRMIGACHASRFLHMKVECPTELFPPLFLEVFED
B5: BCL11B, Q9C0K0 (protein)
chain: MSRRKQGNPQHLSQRELITPEADHVEAAILEEDEGLEIEEPSGLGLMVGGPDPDLLTCGQCQMNFPLGDILVFIEHKRKQCGGSLGACYDKALDKDSPPPSSRSELRKVSEPVEIGIQVTPDEDDHLLSPTKGICPKQENIAGPCRPAQLPAVAPIAASSHPHSSVITSPLRALGALPPCLPLPCCSARPVSGDGTQGEGQTEAPFGCQCQLSGKDEPSSYICTTCKQPFNSAWFLLQHAQNTHGFRIYLEPGPASSSLTPRLTIPPPLGPEAVAQSPLMNFLGDSNPFNLLRMTGPILRDHPGFGEGRLPGTPPLFSPPPRHHLDPHRLSAEEMGLVAQHPSAFDRVMRLNPMAIDSPAMDFSRRLRELAGNSSTPPPVSPGRGNPMHRLLNPFQPSPKSPFLSTPPLPPMPPGGTPPPQPPAKSKSCEFCGKTFKFQSNLIVHRRSHTGEKPYKCQLCDHACSQASKLKRHMKTHMHKAGSLAGRSDDGLSAASSPEPGTSELAGEGLKAADGDFRHHESDPSLGHEPEEEDEEEEEEEEELLLENESRPESSFSMDSELSRNRENGGGGVPGVPGAGGGAAKALADEKALVLGKVMENVGLGALPQYGELLADKQKRGAFLKRAAGGGDAGDDDDAGGCGDAGAGGAVNGRGGGFAPGTEPFPGLFPRKPAPLPSPGLNSAAKRIKVEKDLELPPAALIPSENVYSQWLVGYAASRHFMKDPFLGFTDARQSPFATSSEHSSENGSLRFSTPPGDLLDGGLSGRSGTASGGSTPHLGGPGPGRPSSKEGRRSDTCEYCGKVFKNCSNLTVHRRSHTGERPYKCELCNYACAQSSKLTRHMKTHGQIGKEVYRCDICQMPFSVYSTLEKHMKKWHGEHLLTNDVKIEQAERS
B6: ATF7, P17544 (protein)
chain: MGDDRPFVCNAPGCGQRFTNEDHLAVHKHKHEMTLKFGPARTDSVIIADQTPTPTRFLKNCEEVGLFNELASSFEHEFKKAADEDEKKAAAGPLDMSLPSTPDIKIKEEEPVEVDSSPPDSPASSPCSPPLKEKEVTPKPVLISTPTPTIVRPGSLPLHLGYDPLHPTLPSPTSVITQAPPSNRQMGSPTGSLPLVMHLANGQTMPVLPGPPVQMPSVISLARPVSMVPNIPGIPGPPVNSSGSISPSGHPIPSEAKMRLKATLTHQVSSINGGCGMVVGTASTMVTARPEQSQILIQHPDAPSPAQPQVSPAQPTPSTGGRRRRTVDEDPDERRQRFLERNRAAASRCRQKRKLWVSSLEKKAEELTSQNIQLSNEVTLLRNEVAQLKQLLLAHKDCPVTALQKKTQGYLESPKESSEPTGSPAPVIQHSSATAPSNGLSVRSAAEAVATSVLTQMASQRTELSMPIQSHVIMTPQSQSAGR
B7: GRHL2, Q6ISB3 (protein)
chain: MSQESDNNKRLVALVPMPSDPPFNTRRAYTSEDEAWKSYLENPLTAATKAMMSINGDEDSAAALGLLYDYYKVPRDKRLLSVSKASDSQEDQEKRNCLGTSEAQSNLSGGENRVQVLKTVPVNLSLNQDHLENSKREQYSISFPESSAIIPVSGITVVKAEDFTPVFMAPPVHYPRGDGEEQRVVIFEQTQYDVPSLATHSAYLKDDQRSTPDSTYSESFKDAATEKFRSASVGAEEYMYDQTSSGTFQYTLEATKSLRQKQGEGPMTYLNKGQFYAITLSETGDNKCFRHPISKVRSVVMVVFSEDKNRDEQLKYWKYWHSRQHTAKQRVLDIADYKESFNTIGNIEEIAYNAVSFTWDVNEEAKIFITVNCLSTDFSSQKGVKGLPLMIQIDTYSYNNRSNKPIHRAYCQIKVFCDKGAERKIRDEERKQNRKKGKGQASQTQCNSSSDGKLAAIPLQKKSDITYFKTMPDLHSQPVLFIPDVHFANLQRTGQVYYNTDDEREGGSVLVKRMFRPMEEEFGPVPSKQMKEEGTKRVLLYVRKETDDVFDALMLKSPTVKGLMEAISEKYGLPVEKIAKLYKKSKKGILVNMDDNIIEHYSNEDTFILNMESMVEGFKVTLMEI
B8: FEV, Q99581 (protein)
chain: MRQSGASQPLLINMYLPDPVGDGLFKDGKNPSWGPLSPAVQKGSGQIQLWQFLLELLADRANAGCIAWEGGHGEFKLTDPDEVARRWGERKSKPNMNYDKLSRALRYYYDKNIMSKVHGKRYAYRFDFQGLAQACQPPPAHAHAAAAAAAAAAAAQDGALYKLPAGLAPLPFPGLSKLNLMAASAGVAPAGFSYWPGPGPAATAAAATAALYPSPSLQPPPGPFGAVAAASHLGGHYH
B9: NRF1, Q16656 (protein)
chain: MEEHGVTQTEHMATIEAHAVAQQVQQVHVATYTEHSMLSADEDSPSSPEDTSYDDSDILNSTAADEVTAHLAAAGPVGMAAAAAVATGKKRKRPHVFESNPSIRKRQQTRLLRKLRATLDEYTTRVGQQAIVLCISPSKPNPVFKVFGAAPLENVVRKYKSMILEDLESALAEHAPAPQEVNSELPPLTIDGIPVSVDKMTQAQLRAFIPEMLKYSTGRGKPGWGKESCKPIWWPEDIPWANVRSDVRTEEQKQRVSWTQALRTIVKNCYKQHGREDLLYAFEDQQTQTQATATHSIAHLVPSQTVVQTFSNPDGTVSLIQVGTGATVATLADASELPTTVTVAQVNYSAVADGEVEQNWATLQGGEMTIQTTQASEATQAVASLAEAAVAASQEMQQGATVTMALNSEAAAHAVATLAEATLQGGGQIVLSGETAAAVGALTGVQDANGLVQIPVSMYQTVVTSLAQGNGPVQVAMAPVTTRISDSAVTMDGQAVEVVTLEQ
B10: ZNF137P, P52743 (protein)
chain: MNVARFLVEKHTLHVIIDFILSKVSNQQSNLAQHQRVYTGEKPYKCNEWGKALSGKSSLFYHQAIHGVGKLCKCNDCHKVFSNATTIANHWRIHNEDRSYKCNKCGKIFRHRSYLAVYQRTHTGEKPYKYHDCGKVFSQASSYAKHRRIHTGEKPHKCDDCGKVLTSRSHLIRHQRIHTGQKSYKCLKCGKVFSLWALHAEHQKIHF

Some of the results follow. Binding of human transcription factors and regulators to the viral nucleoprotein by AlphaScreen, crude cell-free proteins, amounts not normalised, one pass. Fold of the Venus control; higher = more signal. No active / inactive call. Single-pass screen; sequences are the whole Swiss-Prot entries looked up by name.

For this assay, the target named is nucleoprotein N of Crimean-Congo hemorrhagic fever virus. Nature of the assay: AlphaScreen luminescence signal relative to Venus negative control (fold); higher = stronger binding to CCHFV N. As for the experimental part: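 AlphaScreen binding of cell-free made, FLAG-GST-tagged human transcription factors and regulators (crude translation products) to biotinylated N protein; signal as fold of the FLAG-GST-Venus control. One pass.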
Consider B1, for which the AlphaScreen luminescence signal turned out to be 2.09.
Under B2 stands 2.47; under B3, 2.88.
As to B4, the AlphaScreen luminescence signal is 6.88.
As for B5, the AlphaScreen luminescence signal stood at 2.84.
The molecule B6 had an AlphaScreen luminescence signal of 2.6.
With B7, the AlphaScreen luminescence signal was determined as 3.77.
As for B8, the figure is 2.05; as for B9, 2.05; as for B10, 2.28.
